# In PubChem BioAssay AID686979 (National Center for Advancing Translational Sciences (NCATS), 2013):
# The campaign covered roughly 420,000 compounds. About 50,000 (12%) were called active. Inconclusive results, whose numbers are uncertain, are shown with a selection of clear calls. Calls come from the whole dose curve; as a rule, active = well fitted inhibition curve with a large enough effect; inconclusive = small, poorly fitted or top-dose-only effect; inactive = flat fitted curve, though single readings scatter. No potency is given beside an inconclusive call; the fits are too rough.
# Test: qHTS for Inhibitors of human tyrosyl-DNA phosphodiesterase 1 (TDP1): qHTS in cells in presence of CPT; note: nearly all actives have a fitted effect of over 55% in size
# Conditions: chicken DT40 Tdp1-/-;hTDP1 cells + 20 nM CPT, ATP luminescence, 48 h; activity change, negative = growth inhibition: at 46.2 µM (top of the series)
# In short: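 Chicken DT40 Tdp1-/- cells complemented with human TDP1, 400 cells/well, exposed to compounds plus 20 nM camptothecin for at least 48 h at 37 C; viability read as ATP content by CellTiter-Glo luminescence.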
# % is set by controls: 0 for no effect and ±100 for the full control effect; potency is the fitted concentration of half-maximal effect; tags give direction and shape of the fitted curve.
Structure (SMILES),Potency,"activity change, negative = growth inhibition"
COc1ccccc1N1CCN(C(=O)c2cnc(N3CCOCC3)c3ccccc23)CC1,"inconclusive [inhibitor, single point]",
CCOC(=O)C1CCCN(Cc2ccc(OCc3ccccc3)cc2)C1 (stereo unspecified),"inconclusive [inhibitor, partial curve]",
COc1ccc(-c2cc(CNc3nc(NCc4ccccc4OC)nc4ccsc34)on2)cc1,active: 16.4 µM,
COC(=O)C(=O)/C=C(\O)c1ccc(C)cc1,,inactive: -3.35%
COc1cc(NC(=O)CCCN2C(=O)NC(C)(C)C2=O)cc(OC)c1,,inactive: 3.76%
O=C(NN1CC(C(=O)OCc2ccc(Br)cc2)CC1=O)c1ccccc1 (stereo unspecified),,inactive: 2.32%
Cc1cc(-c2ccc(S(=O)(=O)N3CCN(C)CC3)s2)on1,,inactive: -11.5%
CCN(CC(=O)NCc1ccc(F)cc1)C(=O)COc1ccccc1[N+](=O)[O-],,inactive: -25%
CCNC(=O)CC1C(=O)N(CC)C(=S)N1NC(=O)c1cccnc1 (stereo unspecified),,inactive: 5.33%
CCOC(=O)C1=C(N)N(c2ccc(C)cc2)C2=C(C(=O)CCC2)C1c1cccs1 (stereo unspecified),"inconclusive [inhibitor, single point]",
CCCCNC(=O)C1(C)CCN1C(=O)c1cc(-c2ccccc2)cs1 (stereo unspecified),"inconclusive [inhibitor, partial curve, poor fit]",
CCN(CC(=O)Nc1c(F)cccc1F)C(=O)/C=C/c1cn(Cc2ccccc2)nc1-c1cccnc1,"inconclusive [inhibitor, single point]",
CC1(C(=O)NCC2CCOCC2)Cc2c(-c3cccc(C(F)(F)F)c3)ccnc2O1 (stereo unspecified),active: 5.17 µM,
O=C(Nc1ccc(OCC(=O)N2CCOCC2)cc1)c1cccc(Cl)c1,,inactive: 13.6%
CN(C)c1ccc(/C=N/N2C(=S)SC(C)(C)C2N(O)C(=O)Nc2ccc([N+](=O)[O-])cc2)cc1 (stereo unspecified),"inconclusive [inhibitor, single point]",
COc1ccc(Cn2c(CO)cnc2SCc2cccc(C)c2)cc1,"inconclusive [inhibitor, single point]",
O=C(CCn1cnc2ncccc2c1=O)N1CCN(c2cccc(Cl)c2)CC1,,inactive: -16.7%
COc1ccccc1CN=C1NC(=O)C(CC(=O)Nc2ccc(C(C)=O)cc2)S1 (stereo unspecified),,inactive: 9.22%
Cc1cccc(C)c1NC(=S)Nc1c(C)n(C)n(-c2ccccc2)c1=O,,inactive: 0.585%
Cc1cccc(OCC(=O)Nc2cccc(C(=O)Nc3ccccc3C(=O)O)c2)c1,"inconclusive [inhibitor, single point]",
COC(=O)CCC/C=C1/SCC(NC(=O)c2ccccc2)C1=O (stereo unspecified),active: 25.9 µM,
O=C(Cc1ccc(NC(=O)C2CCCN(C(=O)C3CC3)C2)cc1)Nc1cccc(C(=O)N2CCCC2)c1 (stereo unspecified),,inactive: 0.832%
CCCNC(=O)COC(=O)c1ccc(-c2ccccc2)cc1,,inactive: -15.6%
CS(=O)(=O)c1ccc(-c2nnn(CC(=O)Nc3ccc4c(c3)OCCO4)n2)cc1,,inactive: -0.0542%

Structure (SMILES),Potency,"activity change, negative = growth inhibition"
O=c1c(-c2ccccc2)c(O)c2cccc3c2n1CCC3,,inactive: -2.8%
CCCCN(CCCC)C(=O)CSc1nnc2n(C)c(=O)c3c4c(sc3n12)CCCC4,"inconclusive [inhibitor, single point]",
COc1ccc(-n2cnc3sc4c(c3c2=O)CCCC4)cc1,"inconclusive [inhibitor, single point]",
COc1ccc(C(=O)C2CCCN(C(=O)c3cc(C(C)C)no3)C2)cc1F (stereo unspecified),"inconclusive [inhibitor, single point]",
O=C(c1cccs1)N1CCN(c2ccc([N+](=O)[O-])cc2F)CC1,"inconclusive [inhibitor, single point]",
CC(C(=O)Nc1ccc(S(=O)(=O)N2CCCC2)cc1)N(C)Cc1ccc(F)cc1 (stereo unspecified),"inconclusive [inhibitor, single point]",
Nc1ccc(C(=O)N2CCN(S(=O)(=O)c3ccc(Cl)cc3)CC2)cc1[N+](=O)[O-],,inactive: -66.4%
O=C(CNC(=O)C(c1ccccc1)c1ccccc1)N/N=C\c1cccc(O)c1,"inconclusive [inhibitor, single point]",
CCN1CCN(Cc2cccc(Oc3ccc(Cl)cc3)c2)CC1,"inconclusive [inhibitor, single point]",
COc1ccccc1N1CCN(C(=O)CCS(=O)(=O)c2cc(Br)cc3c2N(C(C)=O)CC3)CC1,"inconclusive [inhibitor, single point]",
O=C(CN(c1ccccc1)S(=O)(=O)c1ccccc1)Nc1ccc(F)cc1,"inconclusive [inhibitor, single point]",
Cc1cc(C)c2oc(-c3ccc(C)c(NC(=O)/C=C/c4ccco4)c3)nc2c1,"inconclusive [inhibitor, single point]",
COc1ccccc1N1CCN(C(=O)COc2cc(C)cc(C)c2)CC1,"inconclusive [inhibitor, single point]",
COc1cc(OC)cc(-c2c(-c3cccs3)c3cc(-c4ccc5[nH]ccc5c4)ccc3n2C)c1,"inconclusive [inhibitor, single point]",
Cn1nc(C(F)(F)F)c(C(=O)Nc2ccc(Cl)cc2)c1Cl,,inconclusive: -36% [inhibitor]
COc1ccc(CNC(=O)c2cc3c(=O)n(C)c4ccccc4c3n2C)c(OC)c1,"inconclusive [inhibitor, single point]",
O=C(O)CN1CCN(Cc2cccc(Cl)c2)C1=O,,inactive: -4.17%
CC(C)Cc1nnc(NC(=O)CCC(=O)N2CCN(Cc3ccc(F)cc3)CC2)s1,,inconclusive: -35.7% [inhibitor]
CC1CC(C)CN(S(=O)(=O)c2cc3c(cc2Cl)NC(=O)CO3)C1 (stereo unspecified),,inactive: -17.9%
Cn1c(=O)c2c(nc(NCc3ccc4c(c3)OCO4)n2Cc2ccc(F)cc2)n(C)c1=O,active: 9.2 µM,
Cc1ccc(C(=O)N2CCOCC2)cc1S(=O)(=O)N1CCCCC1,,inactive: 1.18%
Cn1ccnc1C(=O)c1cc(SCC(=O)NCc2ccccc2)nc2ccccc12,active: 6.51 µM,
O=[N+]([O-])c1ccc(/C=N/n2cnc3ccccc32)s1,active: 3.66 µM,
Cc1ccc(S(=O)(=O)N2CCN(C(=O)c3c(-c4ccccc4)noc3C)CC2)cc1C,"inconclusive [inhibitor, single point]",

Structure (SMILES),Potency,"activity change, negative = growth inhibition"
Nc1nc(C2CC2)c(Sc2sc(N)nc2C2CC2)s1,"inconclusive [inhibitor, single point]",
Cn1c(=O)n(CC(=O)OCc2ccccc2)c(=O)c2c1nc1n2CCCN1C1CCCCC1,"inconclusive [inhibitor, single point]",
C=CCn1c(C(C)NC(=O)COC)nc2ccccc21 (stereo unspecified),,inactive: -5.52%
CCOC(=O)c1c(NC(=O)c2ccc(N3C(=O)C4C5C=CC(C5)C4C3=O)cc2)sc2c1CCCC2 (stereo unspecified),"inconclusive [inhibitor, single point]",
CCN1CCN(c2nc(SC)nc3sc4c(c23)CC(C)(C)OC4)CC1,"inconclusive [inhibitor, single point]",
Cc1cccc(-n2ncc3c2CCCC3NC(=O)CCN2Cc3ccccc3C2=O)c1C (stereo unspecified),"inconclusive [inhibitor, partial curve]",
CC(=O)c1ccc([C@@H]2C[C@]34CN(Cc5cccc(C(F)(F)F)c5)S(=O)(=O)[C@H]3C[C@H]2O4)cc1,"inconclusive [inhibitor, single point]",
COc1ccccc1NCC(=O)c1ccc(Cl)cc1,,inactive: -26.9%
C/C(=N\NC(=S)NC1CCCCC1)c1ccc(Cl)c(Cl)c1,"inconclusive [inhibitor, single point]",
Cc1ccc(C(=O)NCC(=O)N(C)Cc2ccccc2C)s1,,inactive: 2.15%
Cc1cc(C(F)F)n2ncc(C(=O)N3CCc4ccccc4C3)c2n1,"inconclusive [inhibitor, single point]",
CCN1CCN(C(c2ccc(F)cc2)c2nnnn2Cc2ccc3c(c2)OCO3)CC1 (stereo unspecified),"inconclusive [inhibitor, partial curve]",
Cc1cccc(-c2cccc(NC(=O)C3CCCN(Cc4cccnc4)C3)c2)c1 (stereo unspecified),"inconclusive [inhibitor, single point]",
O=C(NCCN1CCOCC1)/C(=C\c1ccccc1F)NC(=O)c1ccccc1,,inactive: -0.0157%
CC(=O)NC(c1ccccc1)c1nc(-c2cncnc2)cs1 (stereo unspecified),,inactive: 7.44%
CSc1ccccc1OCc1cc(C(=O)NCCN2CCCc3ccccc32)no1,"inconclusive [inhibitor, single point]",
CC1=C(C(=O)Nc2ccccc2)C(c2cc(Br)ccc2F)n2ncc(C(=O)Nc3ccccc3)c2N1 (stereo unspecified),"inconclusive [inhibitor, single point]",
CC1(C)CC(=O)C(=Cc2cn(-c3ccccc3)nc2-c2ccc(Cl)cc2)C(=O)C1,active: 9.2 µM,
Cc1ccc(C(=O)n2nc(C)c(S(=O)(=O)N3CCOCC3)c2C)cc1C,"inconclusive [inhibitor, single point]",
Cc1cc2nc(-c3ccc(SCc4ccc(C(=O)O)cc4)nc3)[nH]c2cc1C,"inconclusive [inhibitor, single point]",
COc1cccc(-c2nc(S(=O)(=O)c3ccccc3)c(N3CCC(C)CC3)o2)c1,"inconclusive [inhibitor, single point]",
CCS(=O)(=O)c1c(Nc2cc(C)ccc2C)sc(C(=O)c2ccccc2)c1N,"inconclusive [inhibitor, single point]",
CC(C)Cc1ccc(CN2CCCC(NC(=O)c3ccnn3C)C2)cc1 (stereo unspecified),active: 18.4 µM,
